Patent US11178870B2 (priority 2017, dated 2021)

What was measured:
[1] = system: Colletotrichum orbiculare; settings: for Test H control value (anthracnose on cucumber): 250 ppm spray, 2.5 ml/pot, investigated 6 to 10 days after inoculation
[2] = system: Magnaporthe grisea; type: in vivo; settings: for Test A control value (blast on rice): class of control value, Table 7
[3] = system: Phytophthora infestans; type: in vivo; settings: for Test F control value (late blight on tomato): class of control value, Table 7

Compound | control value, Test H (anthracnose on cucumber) ([1]; 250 ppm sprayed (2.5 ml/pot) before inoculation, assessed 6 to 10 days after inoculation) | control value, Test A (blast on rice) ([2]; Table 7, Test A) | control value, Test F (late blight on tomato) ([3]; Table 7, Test F) | Test H control value (anthracnose on cucumber) [1] | Test A control value (blast on rice) [2] | Test F control value (late blight on tomato) [3]
CCn1c(-c2ccc(NC)cc2F)c(-n2ncc(C)c2Cl)cc(Br)c1=O [Compound 368] | L (L shows the control value of 50% or less) | L (L shows the control value of 50% or less) | L (L shows the control value of 50% or less) |  |  | 
CCn1c(-c2ccccc2C(F)(F)F)c(-n2cc(C)cn2)ccc1=O [Compound 372] |  |  |  | L (L shows the control value of 50% or less) | L (L shows the control value of 50% or less) | L (L shows the control value of 50% or less)
CCn1c(-c2c(F)cccc2F)c(-c2sccc2C)cc(Br)c1=O [Compound 389] |  |  |  | H (H shows the control value more than 50%) | H (H shows the control value more than 50%) | L (L shows the control value of 50% or less)
CCn1c(-c2c(F)cccc2F)c(-c2sc(Br)cc2C)cc(Cl)c1=O [Compound 387] |  |  |  | L (L shows the control value of 50% or less) | H (H shows the control value more than 50%) | L (L shows the control value of 50% or less)
